Among the data in publication PMC6325244 are binding values, retold here.

Protein sequences, listed by entry. Tags and fused reporters are not part of them.
UniProt P06136: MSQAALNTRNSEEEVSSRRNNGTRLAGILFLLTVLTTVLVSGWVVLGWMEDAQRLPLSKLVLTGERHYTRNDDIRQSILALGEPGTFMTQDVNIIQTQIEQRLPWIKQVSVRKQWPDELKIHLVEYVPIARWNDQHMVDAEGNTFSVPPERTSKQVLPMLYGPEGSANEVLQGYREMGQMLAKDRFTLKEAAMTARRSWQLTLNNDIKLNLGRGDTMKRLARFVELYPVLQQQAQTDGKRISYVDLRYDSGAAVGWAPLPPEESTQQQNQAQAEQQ

Numbering of substitutions follows the chain as printed. In names and notes the source's numbering stands. No constants are given. Whether binding was seen depends on the method and setting. In cells and extracts the contact can be indirect. Some results given as binding are weak or reduced against the parent protein; the word gives no strength. For part of these data: Sequences can lack the tags named with a protein.

Common to all, as to assay: pull-down; coexpression from compatible Duet vectors in E. coli, complexes extracted from membranes with detergent, affinity copurification on a HisTrap/Ni column with one His-tagged protein as bait; eluate labeled with fluorescent ampicillin when PBPs were present, SDS-PAGE, fluorescence imaging, Coomassie staining, immunoblot
For test [1], the target named is T1, HisFtsBL (E. coli) (UniProt P0A6S5+P0AEN4).
T1 sequence 1: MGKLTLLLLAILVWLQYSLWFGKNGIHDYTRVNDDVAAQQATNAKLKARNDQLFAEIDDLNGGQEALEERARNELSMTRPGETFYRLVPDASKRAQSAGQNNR
T1 sequence 2: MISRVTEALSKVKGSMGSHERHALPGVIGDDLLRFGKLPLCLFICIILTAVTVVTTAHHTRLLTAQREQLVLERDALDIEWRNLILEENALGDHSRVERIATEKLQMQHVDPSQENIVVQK

Test [2] addresses HisFtsBLQ complex (His-FtsB, FtsL, FtsQ) (E. coli) (UniProt P0A6S5+P0AEN4+P06136).
Test [3] concerns the target HisFtsQ (E. coli) (UniProt P06136).
Test [4] concerns the target T2, HisFtsW (E. coli) (UniProt P0ABG4).
T2 sequence: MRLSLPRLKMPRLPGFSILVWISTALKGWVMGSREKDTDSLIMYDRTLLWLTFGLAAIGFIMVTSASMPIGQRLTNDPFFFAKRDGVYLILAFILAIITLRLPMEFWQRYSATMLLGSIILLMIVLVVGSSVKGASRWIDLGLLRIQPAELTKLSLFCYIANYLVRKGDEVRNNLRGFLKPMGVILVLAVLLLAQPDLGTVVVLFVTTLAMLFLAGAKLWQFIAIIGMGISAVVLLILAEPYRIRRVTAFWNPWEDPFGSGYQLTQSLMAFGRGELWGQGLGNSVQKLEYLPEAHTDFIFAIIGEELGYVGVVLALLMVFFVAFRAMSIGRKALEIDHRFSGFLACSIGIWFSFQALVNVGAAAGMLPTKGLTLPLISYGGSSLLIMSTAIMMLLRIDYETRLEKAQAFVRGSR

Test [5] has as its target T3, PBP1b (E. coli) (UniProt P02919).
T3 sequence (chain, fluorescent ampicillin label added after elution): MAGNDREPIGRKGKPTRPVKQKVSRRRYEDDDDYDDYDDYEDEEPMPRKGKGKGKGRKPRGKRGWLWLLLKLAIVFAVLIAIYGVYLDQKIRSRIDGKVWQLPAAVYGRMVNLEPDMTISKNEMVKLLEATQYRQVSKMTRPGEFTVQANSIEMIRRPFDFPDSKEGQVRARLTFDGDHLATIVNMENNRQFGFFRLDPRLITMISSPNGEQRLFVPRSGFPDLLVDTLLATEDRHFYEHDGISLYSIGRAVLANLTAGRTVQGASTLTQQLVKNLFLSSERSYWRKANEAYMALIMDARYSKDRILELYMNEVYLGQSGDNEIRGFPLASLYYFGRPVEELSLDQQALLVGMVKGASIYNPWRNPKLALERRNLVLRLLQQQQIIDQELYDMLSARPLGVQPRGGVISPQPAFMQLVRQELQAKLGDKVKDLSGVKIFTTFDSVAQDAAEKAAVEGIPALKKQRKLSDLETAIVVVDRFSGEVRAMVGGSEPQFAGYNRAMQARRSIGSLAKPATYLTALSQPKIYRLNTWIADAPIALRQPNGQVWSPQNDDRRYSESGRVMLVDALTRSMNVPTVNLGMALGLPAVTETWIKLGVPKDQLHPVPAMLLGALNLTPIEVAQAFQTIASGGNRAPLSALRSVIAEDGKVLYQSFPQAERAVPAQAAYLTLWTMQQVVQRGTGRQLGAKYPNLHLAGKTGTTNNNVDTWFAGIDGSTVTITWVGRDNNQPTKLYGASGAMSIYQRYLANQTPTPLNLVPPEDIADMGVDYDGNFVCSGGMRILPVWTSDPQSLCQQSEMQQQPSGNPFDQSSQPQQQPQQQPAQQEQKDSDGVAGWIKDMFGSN

The target of test [6] is T4, His-FtsB (E. coli) (UniProt P0A6S5).
T4 sequence: T1 sequence 1

B1: PBP1b (enzyme, UniProt P02919 1-844)
chain: T3 sequence (chain, fluorescent ampicillin label added after elution)
modifications: fluorescent ampicillin label added after elution
For the molecule B1, the binding result in test [1], in test [2], in test [3] and in test [4] was “binds” throughout.

B2: endogenous PBP3 (enzyme, UniProt P0AD68 1-577)
chain: MKAAAKTQKPKRQEEHANFISWRFALLCGCILLALAFLLGRVAWLQVISPDMLVKEGDMRSLRVQQVSTSRGMITDRSGRPLAVSVPVKAIWADPKEVHDAGGISVGDRWKALANALNIPLDQLSARINANPKGRFIYLARQVNPDMADYIKKLKLPGIHLREESRRYYPSGEVTAHLIGFTNVDSQGIEGVEKSFDKWLTGQPGERIVRKDRYGRVIEDISSTDSQAAHNLALSIDERLQALVYRELNNAVAFNKAESGSAVLVDVNTGEVLAMANSPSYNPNNLSGTPKEAMRNRTITDVFEPGSTVKPMVVMTALQRGVVRENSVLNTIPYRINGHEIKDVARYSELTLTGVLQKSSNVGVSKLALAMPSSALVDTYSRFGLGKATNLGLVGERSGLYPQKQRWSDIERATFSFGYGLMVTPLQLARVYATIGSYGIYRPLSITKVDPPVPGERVFPESIVRTVVHMMESVALPGGGGVKAAIKGYRIAIKTGTAKKVGPDGRYINKYIAYTAGVAPASQPRFALVVVINDPQAGKYYGGAVSAPVFGAIMGGVLRTMNIEPDALTTGDKNEFV
modifications: fluorescent ampicillin label added after elution
On to B2, for which the binding entry in test [1] is “no binding”; in test [2], “binds”; in test [3], “no binding”; in test [4], “binds”.

B3: PBP3 (untagged, overexpressed) (enzyme, UniProt P0AD68 1-577)
chain: B2 chain
modifications: fluorescent ampicillin label added after elution
Turning to B3, the binding entry is listed as “binds weakly” in test [2] and “binds” in test [4].

B4: StrepFtsW (protein, UniProt P0ABG4 1-414)
chain: T2 sequence
As to B4, the binding entry in test [2] is “binds”.

B5: FtsW (untagged) (protein, UniProt P0ABG4 1-414)
chain: T2 sequence
Consider B5, for which the binding result in test [2] is reported as “binds”.

B6: FtsN (protein, UniProt P29131 1-319)
chain: MAQRDYVRRSQPAPSRRKKSTSRKKQRNLPAVSPAMVAIAAAVLVTFIGGLYFITHHKKEESETLQSQKVTGNGLPPKPEERWRYIKELESRQPGVRAPTEPSAGGEVKTPEQLTPEQRQLLEQMQADMRQQPTQLVEVPWNEQTPEQRQQTLQRQRQAQQLAEQQRLAQQSRTTEQSWQQQTRTSQAAPVQAQPRQSKPASSQQPYQDLLQTPAHTTAQSKPQQAAPVARAADAPKPTAEKKDERRWMVQCGSFRGAEQAETVRAQLAFEGFDSKITTNNGWNRVVIGPVKGKENADSTLNRLKMAGHTNCIRLAAGG
With B6, the binding entry in test [4] and in test [5] was “binds” each time.

B7: FtsL^D93A (protein, UniProt P0AEN4 1-121)
chain: T1 sequence 2 with D93A
In the case of B7, in test [6], the binding result is recorded as “binds”.
